{"source": "PubChem BioAssay AID588342", "about": "(National Center for Advancing Translational Sciences (NCATS), 2011)", "note": "About 25,000 (6.9%) of roughly 360,000 compounds were called active. Inconclusive means that the source gave no clear call. Such entries were picked first, then a sample of the others. The call rests on the fitted dose curve; in most records, active means well fitted inhibition curve with a large enough effect; inconclusive means small, poorly fitted or top-dose-only effect; inactive means flat fitted curve, though single readings scatter. Potencies of inconclusive entries are doubtful fits and often do not repeat. Potency means the concentration at half of the fitted maximal effect; tags describe the fitted curve by direction and shape.", "data": [{"biological_target": "Luciferin 4-monooxygenase (Photinus pyralis) (UniProt P08659)", "sequence (P08659 whole entry, looked up)": "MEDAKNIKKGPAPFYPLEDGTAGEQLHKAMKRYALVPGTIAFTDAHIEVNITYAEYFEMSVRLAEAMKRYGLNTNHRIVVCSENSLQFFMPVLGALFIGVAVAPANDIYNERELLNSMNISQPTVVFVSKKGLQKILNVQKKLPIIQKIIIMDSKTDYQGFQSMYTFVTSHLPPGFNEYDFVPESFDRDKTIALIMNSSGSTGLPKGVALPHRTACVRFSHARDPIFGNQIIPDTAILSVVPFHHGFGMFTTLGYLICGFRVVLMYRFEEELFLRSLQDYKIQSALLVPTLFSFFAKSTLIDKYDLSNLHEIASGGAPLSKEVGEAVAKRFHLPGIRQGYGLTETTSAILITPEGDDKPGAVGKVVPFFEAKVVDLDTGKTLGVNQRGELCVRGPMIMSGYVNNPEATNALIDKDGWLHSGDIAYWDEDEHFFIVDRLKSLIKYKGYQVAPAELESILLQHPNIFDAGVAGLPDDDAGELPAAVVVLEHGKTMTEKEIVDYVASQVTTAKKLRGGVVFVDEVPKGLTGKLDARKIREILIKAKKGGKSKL", "assay": "qHTS profiling assay for firefly luciferase inhibitor/activator using purifed enzyme and Km concentrations of substrates (counterscreen for miR-21 project); further: nearly all actives have a fitted effect of over 55% in size", "conditions": "purified FLuc, luminescence inhibition; series mostly up to 57.5 µM", "how_it_was_run": "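Purified P. pyralis luciferase, 10 nM final, with Km-level 10 uM D-luciferin and 10 uM ATP in 50 mM Tris acetate pH 7.5, 10 mM Mg acetate, 0.01% Tween-20, 0.05% BSA; 6-point qHTS titration about 60 µM downward; luminescence read.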", "values": [{"compound": "O=C(/C=C\\c1ccccc1)Nc1nccs1", "Potency": "active: 1.9 µM"}, {"compound": "Cc1cccc(CC(=O)NCC2CCCCC2)c1", "Potency": "inconclusive: 21.3 µM [inhibitor, single point]"}, {"compound": "Cc1cc(C(=O)N/N=C/c2c(C)[nH]c3ccccc23)n[nH]1", "Potency": "inconclusive: 37.9 µM [inhibitor, partial curve, poor fit]"}, {"compound": "Cc1cccc(NC(=O)c2ccc3nc(C(C)C)oc3c2)c1C", "Potency": "inactive"}, {"compound": "COc1cccc(/C=C2\\SC(=S)N(CCC(=O)N3CCCCC3CCO)C2=O)c1", "note": "(centres undefined)", "Potency": "inconclusive: 23.9 µM [inhibitor, partial curve]"}, {"compound": "N#C/C(=N\\Nc1ccc(Br)cc1)C(=N)N1CCOCC1", "Potency": "inconclusive: 26.9 µM [inhibitor, partial curve]"}, {"compound": "Cc1cc(NCCN2CCOCC2)n2nc(C)c(-c3ccc(Cl)cc3)c2n1", "Potency": "inactive"}, {"compound": "CCN(CC)S(=O)(=O)c1cccc(C(=O)Nc2cc(C)nn2-c2ccccc2)c1", "Potency": "inactive"}, {"compound": "Cc1ccc(-c2nc(C#N)c(N3CCC(C)CC3)o2)cc1", "Potency": "inconclusive: 30.1 µM [inhibitor, single point]"}, {"compound": "COc1cc(-c2nc3ccc4ccccc4c3c3c2CCC3)ccc1O", "Potency": "inconclusive: 19 µM [inhibitor, partial curve]"}, {"compound": "Cc1cc(Cl)ccc1OCC(=O)OCC(=O)NC1CCS(=O)(=O)C1", "note": "(centres undefined)", "Potency": "inactive"}, {"compound": "COc1ccc(NC(=O)c2c(NCc3sccc3C)sc3c2CCCC3)c(OC)c1", "Potency": "inconclusive: 23.9 µM [inhibitor, partial curve, poor fit]"}, {"compound": "CCc1nn2c(=O)cc(COC(=O)CNC(=O)COc3ccc(C)cc3)nc2s1", "Potency": "inactive"}, {"compound": "O=C(Nc1ccc(Nc2ccccc2)cc1)C1CC1", "Potency": "inconclusive: 23.9 µM [inhibitor, single point]"}, {"compound": "CCCOc1ccc(CN(C(=O)Cc2coc3ccc(CC)cc23)C2CCS(=O)(=O)C2)cc1", "note": "(centres undefined)", "Potency": "inactive"}, {"compound": "CCCn1c(=O)sc2cc(NC(=O)c3ccc(OC)c(Br)c3)ccc21", "Potency": "inactive"}, {"compound": "CCOc1ccc(NC(=O)c2c(NC(=O)CNCCN3CCOCC3)sc3c2CCC3)cc1", "Potency": "inactive"}, {"compound": "Cc1ccc(NC(=O)c2cccc(N3C(=O)C4C5C=CC(C5)C4C3=O)c2)cc1C", "note": "(centres undefined)", "Potency": "inconclusive: 19 µM [inhibitor, partial curve]"}, {"compound": "CSc1nc(-c2ccco2)nn1C(=O)c1ccccc1Cl", "Potency": "inconclusive: 42.6 µM [inhibitor, partial curve, poor fit]"}, {"compound": "Cc1ccc2nc(NS(C)(=O)=O)sc2c1", "Potency": "inconclusive: 19 µM [inhibitor, single point]"}, {"compound": "Cc1ccc(NC(=O)c2cc(=O)c3ccccc3o2)cc1", "Potency": "inconclusive: 23.9 µM [inhibitor, partial curve]"}, {"compound": "COc1ccc(OCC(=O)Nc2cc(-c3ccccc3F)nn2-c2ccccc2)cc1", "Potency": "inactive"}, {"compound": "CSc1ccc(CNC(=O)C2CCCN(S(=O)(=O)N(C)c3ccc(F)cc3)C2)cc1", "note": "(centres undefined)", "Potency": "inactive"}, {"compound": "O=c1c2c(nc3nc(NCc4ccccc4Cl)[nH]n13)CCC2", "Potency": "inconclusive: 15.1 µM [inhibitor, partial curve]"}, {"compound": "COc1ccc(OCc2nc(N)nc(Nc3ccccc3)n2)cc1", "Potency": "inconclusive: 23.9 µM [inhibitor, partial curve]"}, {"compound": "O=C(CC1(O)C(=O)N(CCc2ccccc2)c2ccc(Br)cc21)c1ccc(F)cc1", "note": "(centres undefined)", "Potency": "inactive"}, {"compound": "COc1ccc(/C=N/NC(=O)c2ccc3c(c2)NC(=O)C(C)(C)O3)cc1OC", "Potency": "inconclusive: 16.9 µM [inhibitor, partial curve]"}, {"compound": "Cc1ccc(-c2nnc(SCC#CCOC(=O)c3ccco3)o2)cc1", "Potency": "active: 16.9 µM"}, {"compound": "COC(=O)N/N=C(\\C)c1ccc(Br)cc1", "Potency": "inconclusive: 26.9 µM [inhibitor, single point]"}, {"compound": "O=c1oc2c(O)cccc2cc1-c1nc2ccccc2[nH]1", "Potency": "active: 0.675 µM"}, {"compound": "CCCNC(=O)c1nc(C)c(C)nc1C(=O)Nc1cccc(Cl)c1", "Potency": "inactive"}, {"compound": "O=C(/C=C/c1cccs1)N1CCN(c2ccccc2)CC1", "Potency": "inconclusive: 19 µM [inhibitor, partial curve, poor fit]"}, {"compound": "CCN1C(=O)/C(=C/C=C2/SCCN2C)SC1=S", "Potency": "active: 0.849 µM"}, {"compound": "Cc1cc(C(=O)Nc2ccc(S(=O)(=O)Nc3onc(C)c3C)cc2)c(C)o1", "Potency": "inconclusive: 21.3 µM [inhibitor, single point]"}, {"compound": "CCOC(=O)c1c(C)c(C(=O)Nc2ccc3c(c2)OCCO3)c(C)n1C", "Potency": "inconclusive: 15.1 µM [inhibitor, partial curve, poor fit]"}, {"compound": "CCN1CCN(c2cc3c(nn2)Oc2ccccc2N3C)CC1", "Potency": "active: 16.9 µM"}, {"compound": "Cc1ccc(Nc2c(-c3ccc(N(C)C)cc3)nc3nc[nH]n23)cc1", "Potency": "inconclusive: 15.1 µM [inhibitor, partial curve]"}, {"compound": "O=[N+]([O-])c1ccccc1NCCOc1ccccc1", "Potency": "active: 9.53 µM"}, {"compound": "COc1ccc(NC(=O)c2oc3ccccc3c2NC(=O)C2CCCO2)cc1OC", "note": "(centres undefined)", "Potency": "inconclusive: 15.1 µM [inhibitor, partial curve, poor fit]"}, {"compound": "CN(C)c1ccc(/C=N/NC(=O)c2ccccn2)cc1", "Potency": "active: 1.69 µM"}, {"compound": "CC(=O)c1ccc(S(=O)(=O)Nc2ccc(-c3ccc(N4CCCCCC4)nn3)cc2)cc1", "Potency": "active: 10.7 µM"}, {"compound": "CCOc1ccc(C)cc1-n1nc2ccccc2n1", "Potency": "inconclusive: 21.3 µM [inhibitor, single point]"}, {"compound": "Cc1nc2sc(C#N)c(N)c2c2c1CCCC2", "Potency": "inconclusive: 12 µM [inhibitor, partial curve, poor fit]"}, {"compound": "COC(=O)c1ccc(CN2CCc3ccc(NC(=O)c4ccncc4)cc3C2)cc1", "Potency": "inconclusive: 42.6 µM [inhibitor, partial curve, poor fit]"}, {"compound": "Cc1ccc(-n2ncc(C(=O)NCCc3ccccc3)c2C2CCN(C(=O)OC(C)(C)C)CC2)c(C)c1", "Potency": "inactive"}, {"compound": "O=C(/C=C/c1ccc(F)cc1)NC(=S)N1CCN(Cc2ccccc2)CC1", "Potency": "inactive"}, {"compound": "Cn1c(SCc2ccc(C(=O)Nc3nccs3)cc2)nnc1-c1ccccc1", "Potency": "active: 15.1 µM"}, {"compound": "CCOc1ccccc1C(=O)NC(CO)C(=O)O", "note": "(centres undefined)", "Potency": "inactive"}, {"compound": "C#CCOc1ccc(/C=C2/C(=O)ON=C2C)cc1Br", "Potency": "inconclusive: 19 µM [inhibitor, single point]"}]}]}
